# Data as given in PMC4336329 (PLoS ONE, 2015).
# In all, about 310,000 compounds went through this assay and about 14,000 (4.5%) showed an effect of 50% or more. The effect is printed as a negative number. The list shows a part of the results.
# Molecular target: human ether-à-go-go-related gene (hERG) potassium channel (human, UniProt Q12809)
# Experiment: primary screen, population patch clamp on CHO cells stably expressing hERG
# 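Note: peak tail current of the secondary pulse compared with the same well before compound.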
# human ether-à-go-go-related gene (hERG) potassium channel, sequence (Q12809 whole entry, looked up): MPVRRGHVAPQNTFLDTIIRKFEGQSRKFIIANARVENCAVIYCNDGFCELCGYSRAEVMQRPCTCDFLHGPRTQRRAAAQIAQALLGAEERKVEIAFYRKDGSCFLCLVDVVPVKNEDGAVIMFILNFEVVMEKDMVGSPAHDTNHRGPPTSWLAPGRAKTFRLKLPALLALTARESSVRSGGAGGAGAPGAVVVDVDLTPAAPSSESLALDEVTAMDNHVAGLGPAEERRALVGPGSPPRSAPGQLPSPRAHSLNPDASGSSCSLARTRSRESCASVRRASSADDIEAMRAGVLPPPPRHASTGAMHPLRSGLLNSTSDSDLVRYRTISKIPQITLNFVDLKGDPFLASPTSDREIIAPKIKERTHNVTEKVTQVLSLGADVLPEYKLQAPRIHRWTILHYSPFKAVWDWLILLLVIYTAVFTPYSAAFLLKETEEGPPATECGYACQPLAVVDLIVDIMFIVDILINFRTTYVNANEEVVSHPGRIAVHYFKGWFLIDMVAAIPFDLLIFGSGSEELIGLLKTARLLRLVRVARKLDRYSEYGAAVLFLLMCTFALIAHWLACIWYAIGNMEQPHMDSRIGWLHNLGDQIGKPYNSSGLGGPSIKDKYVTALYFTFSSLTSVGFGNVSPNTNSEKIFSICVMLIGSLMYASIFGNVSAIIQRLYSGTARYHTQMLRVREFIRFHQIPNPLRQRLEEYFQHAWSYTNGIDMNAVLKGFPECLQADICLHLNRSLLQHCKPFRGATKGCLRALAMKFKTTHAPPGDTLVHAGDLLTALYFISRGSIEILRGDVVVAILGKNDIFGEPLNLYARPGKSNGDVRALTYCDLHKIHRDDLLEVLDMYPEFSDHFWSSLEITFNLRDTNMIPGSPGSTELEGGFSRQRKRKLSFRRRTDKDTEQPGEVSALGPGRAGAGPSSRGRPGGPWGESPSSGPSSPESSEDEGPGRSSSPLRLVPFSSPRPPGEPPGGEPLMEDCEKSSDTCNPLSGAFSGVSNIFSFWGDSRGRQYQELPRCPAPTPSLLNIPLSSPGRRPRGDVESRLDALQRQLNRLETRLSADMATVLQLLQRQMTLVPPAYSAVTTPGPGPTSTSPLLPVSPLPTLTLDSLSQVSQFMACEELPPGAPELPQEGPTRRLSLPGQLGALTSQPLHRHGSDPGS
row,SMILES,"hERG current change (%, negative = inhibition) at 10uM [%]"
1,CCOC(=O)Nc1ccc2c(c1)N(C(=O)CN(CC)CC)c1ccccc1C=C2.Cl.O,-19.1
2,CCN(c1ccc(NC(=O)c2cccc(S(=O)(=O)N3CCN(C)CC3)c2)cc1)C(C)C,-41.3
3,CC(C)(C)OC(=O)N[C@@H](Cc1ccccc1)c1nnc(S(=O)(=O)Cc2ccccc2)o1,-1.97
4,Cn1c(=O)[nH]c2nncnc2c1=O,-13
5,CC12CCC(=O)N1C(C(=O)Nc1ccc(F)cc1)CS2 (stereo not drawn),12.4
6,CC(=O)c1c(C)oc2ccc(NS(=O)(=O)c3ccc(C)cc3)cc12,13.8
7,O=S1(=O)c2cccc3cccc(c23)N1Cc1ccc(-c2nnco2)cc1,7.2
8,O=C(Nc1c2c(nn1-c1ccc(F)cc1)CS(=O)(=O)C2)c1ccc(S(=O)(=O)N2CCOCC2)cc1,12.1
9,CC(=O)Nc1ccc2c(c1)C(=O)N(c1cccc3ccccc13)C2=O,-9.32
10,CC(=O)N(c1ccc(C)cc1)S(=O)(=O)c1ccc(Cl)cc1,6.03
11,O=c1[nH]c(SCCOc2ccccc2F)nc2ccccc12,12.6
12,Cc1ccc2c(c1)C1CN(C)CCC1N2C(=O)c1cccs1 (stereo not drawn),-22
13,COCCCNC(=S)N(Cc1cccnc1)Cc1ccc(OC)c(OC)c1,12.4
14,CCOCCCn1c(=S)[nH]c2cc(C(=O)NCC(OC)OC)ccc2c1=O,10.3
15,O=C(c1ccc2c(c1)OCO2)N1CCC2(CC1)Oc1ccc(Cl)cc1C(=O)C21CC(c2ccccc2)=NO1 (stereo not drawn),-3.51
16,N#Cc1ccccc1NC(=O)CC1CCCCC1,0.146
17,CCc1ccc(OCc2n[nH]c(=S)n2Cc2ccccc2)cc1,-9.87
18,NS(=O)(=O)c1ccc2nc(NC(=O)c3ccc4ncsc4c3)sc2c1,5.34
19,CC(=O)OCCCN1C(=O)c2ccc(Br)cc2C1=O,-8.99
20,COC(=O)C1=C(N)Oc2c(c(=O)oc3ccccc23)[C@]12C(=O)N(C)c1ccccc12,-8.19
21,COc1ccc(S(=O)(=O)N2CCCCC2)cc1NC(=O)c1cc(C)on1,19.3
22,N#Cc1ccc(C(=O)NNC(=O)c2ccncc2)cc1,19.1
23,COc1cccc(NC(=O)CCN2CCOCC2)c1.Cl,15.4
24,O=CNc1ccccc1Oc1ccccc1,0.412
25,CCOC(=O)c1ccc(NC(=O)CNC(=O)C2CCCCC2)cc1,-35.2
26,COc1ccccc1N1CCN(C(=O)CSc2nc3ccccc3nc2N2CCCCC2)CC1,19
27,O=C(N/N=C/C=C/c1ccccc1)c1ccccn1,-19.2

row,SMILES,"hERG current change (%, negative = inhibition) at 10uM [%]"
1,O=C(NCCN1CCOCC1)c1ccc(Cl)c([N+](=O)[O-])c1,16.5
2,CCOC(=O)c1c(S(=O)(=O)N(C)C2CCCCC2)c(C)n(C)c1C,-5.03
3,COc1ccc(C(CNC(=O)COc2cccc(C(F)(F)F)c2)N2CCCC2)cc1 (stereo not drawn),-41.4
4,COc1ccc(CC(=O)Nc2ccc(S(=O)(=O)N3CCCCC3)cc2)cc1OC,-6.86
5,COc1cc(/C=N/NC(=O)c2cc[n+]([O-])cc2)cc(OC)c1OC,4.7
6,O=C(N/N=C/c1ccc(O)cc1O)c1ccc(NC(=O)C2CCCCC2)cc1,34.5
7,O=C(CSc1n[nH]c(-c2ccccc2)n1)Nc1ncccn1,-3.98
8,Cc1ccc(NC(=O)CS(=O)CC(=O)N(CC(=O)NC2CCCC2)c2cccc(C)c2C)cc1 (stereo not drawn),-24.3
9,COC(=O)c1cccc(NS(=O)(=O)c2ccc(OC)cc2)c1C,-1.48
10,COc1ccc(OC)c(Cc2nnc(CCC(=O)NCc3ccsc3)o2)c1,-2
11,COc1cccc(C(=O)OCc2cc(=O)oc3c(C)c(C)ccc23)c1OC,-0.395
12,CCCC(=O)Nc1nc2nc(C)cc(=O)n2[nH]1,1.2
13,O=C(NCCCN1CCOCC1)c1ccc(CS(=O)(=O)c2ccc(Br)cc2)o1,-6.32
14,COC(=O)c1ccc(NC(=S)NC(=O)c2cccnc2)cc1,19.5
15,CCOC(=O)C(Cc1ccc(NC(=O)/C(=C\c2ccccc2)NC(=O)c2ccccc2)cc1)N1C(=O)c2ccccc2C1=O (stereo not drawn),13.3
16,COc1ccc(CN2CCN(Cc3ccccc3OC)CC2)cc1.O=C(O)C(=O)O,2.68
17,CCC(=O)Nc1cccc(C2=NOC3(C2)C[C@@H](C(N)=O)N(C(=O)c2cc([N+](=O)[O-])cc([N+](=O)[O-])c2)C3)c1 (stereo partly drawn),10.7
18,CCN(CC)S(=O)(=O)c1cc(NC(=O)CN2C(=O)NC(C)(c3ccccc3)C2=O)ccc1C (stereo not drawn),-16.8
19,O=C(CSc1nc2c(cnn2-c2ccccc2)c(=O)[nH]1)N1CCOCC1,-14.5
20,OCCC1CN(Cc2cnn(-c3ccc(F)cc3)c2)CCN1Cc1ccsc1 (stereo not drawn),-65.7
21,COc1cc(C[C@@H](CO)[C@H](CO)Cc2ccc(O)c(OC)c2)ccc1O,-8.47
22,O=C(Cn1c(SCc2ccccc2)nc2ccccc21)N1CCOCC1,3.15
23,COc1ccc(CNC(=O)[C@@H](NC(=O)C2CCN(S(=O)(=O)c3ccc(C)cc3)CC2)C(C)C)cc1OC,15.4
24,COc1ccc(C(=O)Nc2cc(Cl)cc(Cl)c2)c(OC)n1,12.9
25,COc1ccc(C(=O)OCC(=O)c2ccccc2)cc1S(=O)(=O)N1CCOCC1,-14.7
26,COc1ccc(NC(=O)CSCC(=O)NC2(C)CCS(=O)(=O)C2)cc1 (stereo not drawn),25.3
27,O=C(NCCCn1ccnc1)/C(=C/c1ccco1)NC(=O)c1ccco1,-45.6
